Reference: PubChem BioAssay AID1159614 (National Center for Advancing Translational Sciences (NCATS), 2016)
Out of some 45,000 compounds screened, about 65 (0.1%) were called active. The call rests on the fitted dose curve; in most records, active means well fitted activation curve with a large enough effect; inconclusive means small, poorly fitted or top-dose-only effect; inactive means no such curve, though single readings can be large or run the other way. The list shows a part of the results.

Each compound was assayed against Galactocerebrosidase (Homo sapiens) (UniProt P54803) (assay: A Novel Cell-Based Assay to Identify Small Molecules for B -Galactocerebrosidase). Conditions: 145M-Twi-hGALC-G270D cells, HMU-beta-Gal fluorescence, 48 h; series mostly up to 57.5 µM; activation: at the top concentration.
Sequence of UniProt P54803 (P54803 whole entry, looked up): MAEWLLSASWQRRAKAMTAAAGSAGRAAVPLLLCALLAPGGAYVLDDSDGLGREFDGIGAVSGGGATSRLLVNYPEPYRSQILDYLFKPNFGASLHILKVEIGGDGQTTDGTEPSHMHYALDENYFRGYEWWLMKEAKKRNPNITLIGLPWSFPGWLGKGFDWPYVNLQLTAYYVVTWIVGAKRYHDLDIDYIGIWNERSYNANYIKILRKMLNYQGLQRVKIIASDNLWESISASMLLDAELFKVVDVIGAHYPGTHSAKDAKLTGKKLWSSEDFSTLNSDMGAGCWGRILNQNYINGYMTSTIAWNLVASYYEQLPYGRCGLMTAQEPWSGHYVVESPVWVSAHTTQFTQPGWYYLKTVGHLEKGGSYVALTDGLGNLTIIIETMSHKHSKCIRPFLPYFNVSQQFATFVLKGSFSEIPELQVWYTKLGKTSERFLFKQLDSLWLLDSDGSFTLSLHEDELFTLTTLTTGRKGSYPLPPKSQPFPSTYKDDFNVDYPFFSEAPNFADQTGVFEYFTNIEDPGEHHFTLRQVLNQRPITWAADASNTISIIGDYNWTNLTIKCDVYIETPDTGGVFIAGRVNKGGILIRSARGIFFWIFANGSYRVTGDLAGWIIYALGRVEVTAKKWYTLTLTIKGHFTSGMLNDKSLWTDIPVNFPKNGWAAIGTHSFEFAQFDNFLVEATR
Summary of the method: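 qHTS, 1536-well; 145M-Twi-hGALC-G270D cells (WT line also made) in DMEM/F12 + 10% FBS; compound incubation on live cells; HMU-β-gal 0.1 mM final, pH 5.2, NaTC; carbonate stop; fluorescence increase = enhanced residual activity.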
Further: 0% is about no effect; nearly all actives have a fitted effect of over 65% in size.

activation, inactive:
Cc1nc2nncn2c(Nc2ccc(F)cc2)c1C -5.32%, Cc1ccc(-c2nc(CCNC(=O)C(=O)Nc3ccc(F)cc3F)cs2)cc1 -10.2%, Cc1ccc(C(=O)Nc2cc3cc(Cl)ccc3oc2=O)cc1 -16.1%, Fc1ccc(C(c2nnc(-c3ccccc3)o2)N2CCN(c3ccccc3)CC2)c(Cl)c1 (stereo not given) 4.73%, CC(C)C(=O)Nc1c(C(=O)N2CCN(c3ccccc3F)CC2)oc2ccccc12 -19.9%, Cc1ccc(-c2nc3sc(CCNC(=O)c4ccco4)c(C)n3n2)cc1 -27.1%, COc1ccccc1NCc1nnc2n1CCCCC2 -11.3%, COc1ccccc1CNC(=O)CCCN1C(=O)CCn2nc(-c3cn(C)c4ccccc34)cc21 -3.25%, Cc1ccc2c(c1)N(CC(=O)NCCCN1CCCCC1)C(=O)c1cccnc1O2 -8.82%, CCOc1ccc(N2CC(NC(=O)c3cc4ccccc4o3)CC2=O)cc1 (stereo not given) -15.9%, COc1cccc(NC(=O)CSc2c(C)cnc3c2c(=O)n(C)c(=O)n3C)c1 -11%, CCCOC(=O)c1c(NC(=O)c2cc3nc(-c4ccc(OC)cc4)cc(C(F)(F)F)n3n2)sc2c1CCCC2 22.6%, COc1cc(Cl)c(C)cc1NC(=O)c1nn(-c2ccc(C)cc2)c(=O)n(C)c1=O -10.4%, CCOc1ccc(S(=O)(=O)N(C(C)=O)c2ccc3oc(C)c(C(=O)OC)c3c2)cc1 -35%, Cc1ccc(CSc2nc3ccncc3n2Cc2nc(-c3ccc(Cl)cc3)oc2C)cc1 -7.67%, COc1ccccc1N1CCN(C(=O)c2cnn(C(C)(C)C)c2C2CCN(C(=O)OC(C)(C)C)CC2)CC1 -25.7%, CCOC(=O)c1ccc(NC(=O)C(=O)NCCc2ccc(OC)cc2)cc1 -9.82%, Cc1ccc(C)c(NC(=O)Cn2c(-c3nonc3N)nc3ccccc32)c1 3.89%, COc1ccc2oc(=O)c(C(=O)N3CCN(c4cc(Cl)ccc4Cl)CC3)cc2c1 -2.12%, Cc1ccc2nc(Cl)c3cc(C(=O)NC4CCCCC4)sc3c2c1 -10.3%, COc1ccc(OC)c(NC(=O)C(NS(=O)(=O)c2ccc3c(c2)CCCC(=O)N3)C(C)C)c1 (stereo not given) -20.7%, Cc1oc(-c2ccccc2Cl)nc1CS(=O)(=O)CC(=O)NC(C)CCc1ccccc1 (stereo not given) -36%, COc1ccc(C(=O)Nc2nc3nc(C)c(Cl)c(=O)n3[nH]2)cc1 -15.4%, CCOc1ccc(NC(=O)Cn2c(=O)c(CNc3ccc(OC)cc3)cc3ccc(OC)cc32)cc1 -4.06%, Cc1ccc(-c2cnc(NCc3c(F)cccc3Cl)n2C)cc1 -9.45%, CCOC(=O)c1cc(S(=O)(=O)N2CCN(c3cc(Cl)ccc3C)CC2)[nH]n1 -2.2%, CCOC(=O)c1ccc(NC(=O)c2nsc3ccccc23)cc1 -25.3%, NS(=O)(=O)c1ccc(Cl)c(S(N)(=O)=O)c1 -7.2%, CN1CCc2nc3sc(C(=O)Nc4c(F)cccc4F)c(N)c3cc2C1 -19.9%, Cc1ccccc1NC(=O)CCc1c(C)nc2c(c1C)c(=O)n(C)c(=O)n2C -4.94%, CCCN(C(=O)Cn1cnc2sc(C)c(S(=O)(=O)N3CCN(c4ncccn4)CC3)c2c1=O)c1cccc(C)c1 14.4%, CCc1ccc(OCC(=O)Nc2c(C(=O)c3ccccc3)oc3ccccc23)cc1 -5.4%, Cc1cc(=O)n2nc(N3CCC(C(=O)NCc4ccccc4Cl)CC3)sc2n1 -4.66%, Cc1nc(-c2cccc(S(=O)(=O)N3CCC(C(=O)NCc4ccccc4)CC3)c2)no1 -5.92%, Cc1cccc(CN2C(=O)c3ccccc3S(=O)(=O)c3ccc(C(=O)N4CCCC4)cc32)c1 -12.9%, COc1ccc(OC)c(S(=O)(=O)Nc2ccc3[nH]c(=O)[nH]c3c2)c1 -10.7%, COc1cccc(NC(=O)c2nnn(Cc3cccc(C(F)(F)F)c3)c2N)c1 -18.7%, COc1ccc(NS(=O)(=O)c2ccc3c(c2)oc(=O)n3C)cc1Cl -14%, CCn1ccc2cc(S(=O)(=O)N3CCCN(C(=O)Nc4ccc(C)cc4)CC3)ccc21 -22.9%, Cc1ccc(S(=O)(=O)c2nnn3c2nc(N2CCCCC2)c2sccc23)cc1 6.39%, CCN(CC)S(=O)(=O)c1ccc(NC(=O)[C@H](CCSC)N2Cc3ccccc3C2=O)cc1 -9.87%, Cc1c(C(=O)NN2CCCCC2)nn(-c2ccc(Cl)cc2Cl)c1-c1ccc(Cl)cc1 -17.4%, Cc1ccc(N2CCN(c3cc(C)nc4c(-c5ccc(Cl)cc5)c(C)nn34)CC2C)cc1 (stereo not given) -5.43%, NC(=O)Cn1c(=O)n(-c2ccc(F)c(Cl)c2)c(=O)c2sc3ccccc3c21 -11.1%, CCc1nc(SCc2cc(=O)c3cc(F)ccc3[nH]2)n[nH]1 0.269%, CC(=O)c1cccc(NC(=O)CN2C(=O)CN(C)C(=O)c3ccccc32)c1 -2.63%, Cc1cc(C)cc(N(C)S(=O)(=O)c2nnc(NC(=O)COc3ccc(Cl)cc3)s2)c1 -19.2%, Cc1cccc(Cn2c(-c3cccs3)nc3ccccc32)c1 -15.7%, CCOc1ccc(Cn2c(CNS(=O)(=O)c3cccs3)nc3cccnc32)cc1 -14.7%, CCOc1ccc(NC(=O)c2ccc3c(c2)c(C)c(C)n3Cc2ccc(F)cc2)cc1 -15.6%, Cc1cn2c(=O)c(S(=O)(=O)NC(C)c3ccccc3)c(C)nc2s1 (stereo not given) -15.1%, Cc1ccc(C)c2sc(N3CCN(C(=O)c4ccco4)CC3)nc12 -35.9%, Cc1ccc(NC(=O)Cn2ncc3c4ccccc4n(Cc4ccccc4)c3c2=O)cc1Cl -6.54%, Cc1ccc(Cn2c(CN3CCC(C(=O)NCC(C)c4ccccc4)CC3)cc3ccccc32)cc1 (stereo not given) -13.7%, C[C@](N)(Cc1ccc(O)c(O)c1)C(=O)O -20.1%, CCOC(=O)c1c(NC(=O)CSc2cn(CCNC(=O)c3c(F)cccc3F)c3ccccc23)sc2c1CCCC2 0.504%, Cc1ccc(-c2cc(C(=O)Nc3c(C(=O)c4ccc(C)c(F)c4)oc4ccccc34)no2)cc1 -13.1%, CCOCCc1nn2c(=O)cc(COC(=O)c3cccc(C)c3)nc2s1 -7.46%, Cc1ccc(C)c(N2CCN(C(=O)C3CCCN(S(=O)(=O)c4cccc5nonc45)C3)CC2)c1 (stereo not given) -17.1%, COC(=O)c1sccc1S(=O)(=O)N1CCN(c2ccc(C(C)=O)cc2)CC1 0.778%, COc1ccc(Cl)cc1NC(=O)Cn1nnc(C(=O)NCc2ccc3c(c2)OCO3)c1N -28.4%, Cn1c(=O)c2c(n3c4ccccc4nc13)NC(=O)CC2c1cccc(Cl)c1 (stereo not given) -0.933%, CCN(CC)CCOC(=O)c1ccc(NC(=O)c2cc3cccc(OC)c3oc2=O)cc1 -6.36%, Cc1ccc(Cl)cc1N1CCN(S(=O)(=O)c2ccc(-c3cnc(C4CC4)o3)cc2)CC1 -16.4%, COc1ccc(S(=O)(=O)NCCc2sc(-c3ccccc3)nc2C)cc1F 10.2%, CC(=O)c1ccc(NC(=O)c2cc(C3CC3)nc3c2c(C)nn3-c2ccc(C)cc2)cc1 -17.9%, CCCOc1ccc(-c2cccc(NS(=O)(=O)c3ccc(CC)cc3)c2)nn1 -4.95%, COc1ccc(NC(=O)CN2CCN(c3ccccc3F)CC2)c(OC)c1 -12.2%, COc1ccc(C(=O)N2CCN(C(=O)COc3ccc(C)cc3)CC2)cc1OC -20.1%, CC(C)c1ccc(NC(=O)CN2C(=O)CCc3cc(S(=O)(=O)N4CCOCC4)ccc32)cc1 -0.113%, CC(C)c1ccc(NC(=O)c2ccc(F)c(S(=O)(=O)N3CCN(c4ccccc4F)CC3)c2)cc1 -13.2%, O=C(Nc1ccccc1F)C(Cc1ccccc1)N1Cc2ccccc2C1=O (stereo not given) -9.43%, COc1ccc(S(=O)(=O)NCCc2sc(-c3cccc(F)c3)nc2C)cc1 -10.3%, COc1cc2c(C(=O)N3CCN(c4cc(Cl)ccc4C)CC3)cn(CC(C)C)c(=O)c2cc1OC -22.5%, O=C(Cn1cc(S(=O)(=O)N2CCN(c3ccccc3F)CC2)c2ccccc2c1=O)Nc1ccc(F)cc1Cl 0.141%, COc1cc(NS(=O)(=O)c2ccc(NC(=O)c3ccc(OC)c(Br)c3)cc2)nc(OC)n1 -5.64%, O=C(Nc1ccc(F)cc1F)N1CCc2c(sc3c2CCCC3)C1c1ccc(F)cc1 (stereo not given) -12%, Cc1ccc(-c2nn3c(=O)cc(CN4CCN(C(=O)c5ccc(C(C)(C)C)cc5)CC4)nc3s2)cc1 -11.2%, COCCn1c(=NC(=O)c2ccc3c(c2)OCCO3)sc2cc(NC(C)=O)ccc21 -16.7%, CCc1ccc(S(=O)(=O)n2ccnc2)cc1 5.75%, Cc1cc(C)c(NC(=O)CN(C)S(=O)(=O)c2ccc3c(c2)c(=O)n(C)c(=O)n3C)c(C)c1 18.4%, Cc1ccc(C(=O)/C=C/c2cn(CC(O)CN3CCCCCC3)c3ccccc23)cc1 (stereo not given) -8.51%, c1cnc(N2CCN(Cc3ccc4c(c3)OCO4)CC2)nc1 -13.8%, Cc1ccc(NC(=O)CSc2nccn2Cc2ccc3c(c2)OCO3)c(C)c1 -9.35%, CCC1=C(c2ccc(C)cc2)S(=O)(=O)N=C1N1CCC(C(=O)NCc2ccc(C)cc2)CC1 -46.8%, CCC(C)NC(=O)CCC(=O)NNc1nc2ccccc2c2nc(C)nn12 (stereo not given) -8.26%, CCCSCCCNC(=O)CN1C(=O)CCn2nc(-c3cn(C)c4ccccc34)cc21 -16.2%, COc1ccc(-c2nc3sc(CCNS(=O)(=O)c4c(C)cc(C)cc4C)c(C)n3n2)cc1 -6.76%, COc1cc(Cl)c(C)cc1Nc1nnc(-n2nc(C)cc2C)c2ccccc12 -10.6%, CCc1cccc(NC(=O)C(Cc2ccccc2)NS(=O)(=O)c2ccc3c(c2)c(=O)n(C)c(=O)n3C)c1 (stereo not given) -18.7%, COc1cccc(NC(=O)C2CCCN2S(=O)(=O)c2ccc3nc(-c4ccccc4)[nH]c3c2)c1 (stereo not given) -2.01%, COc1ccc(OCc2nc(C#N)c(NCc3ccccc3Cl)o2)cc1 2.56%, Cc1cc(SCC(=O)Nc2nsc(-c3ccc(C(C)(C)C)cc3)n2)nc2ccccc12 -16.6%, COc1cccc(N2CCN(C(=O)c3c4c(nc5ccccc35)C(=O)N(C3CCCCC3)C4)CC2)c1 -19.9%, CCOc1ccc(C(=O)Nc2ccc3c(c2)N(C(C)=O)CCC3)cc1OCC -11.6%
